# Measured values: paper PMC4336329 (PLoS ONE, 2015)
# Out of some 310,000 compounds screened, about 2,200 (0.71%) showed an effect of 50% or more. The effect is printed as a negative number. Some of the results follow. Where a SMILES comes first, the peptide text is derived from it. The star is where a group is joined. Boc = CC(C)(C)OC(=O)*; Bn = c1ccc(C*)cc1; NHNH2 = NN*
# Molecular target: human ether-à-go-go-related gene (hERG) potassium channel (human, UniProt Q12809)
# Experiment: primary screen, population patch clamp on CHO cells stably expressing hERG
# Sequence of human ether-à-go-go-related gene (hERG) potassium channel (Q12809 whole entry, looked up): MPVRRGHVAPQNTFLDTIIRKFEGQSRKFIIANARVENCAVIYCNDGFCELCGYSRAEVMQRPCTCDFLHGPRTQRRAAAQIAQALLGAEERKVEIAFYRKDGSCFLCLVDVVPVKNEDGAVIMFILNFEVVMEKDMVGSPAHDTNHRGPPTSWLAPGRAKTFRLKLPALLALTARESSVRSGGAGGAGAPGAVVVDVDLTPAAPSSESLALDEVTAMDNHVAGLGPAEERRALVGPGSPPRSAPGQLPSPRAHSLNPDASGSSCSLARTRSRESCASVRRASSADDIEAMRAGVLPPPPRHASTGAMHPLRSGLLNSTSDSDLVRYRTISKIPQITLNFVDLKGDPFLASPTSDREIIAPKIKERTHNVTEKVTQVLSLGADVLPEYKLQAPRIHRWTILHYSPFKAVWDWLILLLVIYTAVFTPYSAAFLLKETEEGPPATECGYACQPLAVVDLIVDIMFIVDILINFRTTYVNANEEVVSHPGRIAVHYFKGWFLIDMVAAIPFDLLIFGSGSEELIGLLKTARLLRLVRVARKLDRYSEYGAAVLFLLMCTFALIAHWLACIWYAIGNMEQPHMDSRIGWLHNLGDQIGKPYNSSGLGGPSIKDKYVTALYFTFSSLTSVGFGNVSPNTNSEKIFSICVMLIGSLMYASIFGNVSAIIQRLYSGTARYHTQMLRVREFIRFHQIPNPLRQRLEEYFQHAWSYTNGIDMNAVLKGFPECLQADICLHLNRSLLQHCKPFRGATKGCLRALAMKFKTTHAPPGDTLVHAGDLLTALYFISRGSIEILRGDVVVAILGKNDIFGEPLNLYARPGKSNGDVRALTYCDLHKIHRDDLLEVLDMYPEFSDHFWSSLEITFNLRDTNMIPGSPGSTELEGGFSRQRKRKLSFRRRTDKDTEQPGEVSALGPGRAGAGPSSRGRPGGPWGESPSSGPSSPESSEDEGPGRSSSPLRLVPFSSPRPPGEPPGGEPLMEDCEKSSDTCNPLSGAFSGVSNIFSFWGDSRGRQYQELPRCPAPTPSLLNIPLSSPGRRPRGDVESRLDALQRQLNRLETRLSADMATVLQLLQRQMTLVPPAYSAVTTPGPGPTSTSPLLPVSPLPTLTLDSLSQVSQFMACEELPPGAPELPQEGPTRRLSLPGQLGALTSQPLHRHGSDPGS
row,Structure (SMILES),"hERG current change (%, negative = inhibition) at 1uM"
1,CCCCc1ccc(NC(=O)NCc2ccccn2)cc1,-10.7%
2,Cc1ccc2c(CN3CCN(S(=O)(=O)c4ccccc4C(F)(F)F)CC3)cc(=O)oc2c1,-15.1%
3,O=c1cc(CNC2CCCCC2)c2ccccc2[nH]1,14.6%
4,O=C(NC1CCN(CCc2c[nH]c3ccccc23)CC1)c1ccccc1,-33.9%
5,COCCn1c(N)c(C(=O)OCc2ccccc2)c2nc3ccccc3nc21,-0.574%
6,Cc1ccc(C)c2nc3sc(C(=O)N4CCCc5ccccc54)c(N)c3cc12,-5.13%
7,CC(=O)c1ccc(S(=O)(=O)NCCc2csc(-c3cccnc3)n2)cc1,11.4%
8,CC(=O)N(c1ccccc1)C(C)c1nc(C#N)c(C#N)nc1C (stereo not drawn),17.3%
9,COC(=O)C1=CO[C@@H](OC2OC(CO)C(O)C(O)C2O)[C@@H]2C(CO)=CC[C@H]12 (stereo partly drawn),13.2%
10,CCOc1ccccc1NC(=O)CSc1c(C)n[nH]c1C,12.5%
11,CC(C)N(Cc1nc(-c2ccc3c(c2)OCO3)no1)CC1CCC(=O)N1 (stereo not drawn),8.63%
12,COc1ccc(CN2C=C3C(=O)C(C)(OC(=O)C4CCCC4)C(=O)C=C3C=C2c2ccsc2)cc1 (stereo not drawn),-2.57%
13,CCC(C)(C)NC(=O)c1ccc(Br)o1,7.92%
14,COc1cc(NS(=O)(=O)c2ccc(NC(=S)NC(=O)c3sc4ccccc4c3Cl)cc2)ncn1,5.38%
15,COC(=O)C1=C(c2ccc(S(C)(=O)=O)cc2)C[C@@H]2CC[C@H]1N2C(=O)NCc1cccc2ccccc12,-45.5%
16,COCC(C)NCc1cc(Br)ccc1OC.O=C(O)C(=O)O (stereo not drawn),10.7%
17,C#Cc1ccc(CN2CCC(C(=O)Nc3ccc(Oc4ccccc4)nc3)CC2)cc1,-8.69%
18,CCc1ccc(C(=O)COC(=O)C(CCSC)NC(=O)c2ccccc2)cc1 (stereo not drawn),7.2%
19,Cc1[nH]c2ccc(Br)cc2c(=O)c1CN1CCCCCC1,-35.7%
20,[Cl-].[NH3+]CCCn1c(C(=O)c2ccc(Cl)cc2)c2ccc([N+](=O)[O-])cc2[n+]1[O-],-47.1%
21,O=c1c(Cl)c(NS(=O)(=O)c2ccccc2)cnn1-c1ccccc1,9.3%
22,COc1ccc(CCN(C)C(=O)c2ccc(S(=O)(=O)NCc3ccco3)cc2)cc1OC,6.74%

row,Structure (SMILES),"hERG current change (%, negative = inhibition) at 1uM"
1,CCOCCCNC(=S)N1CCCN(c2nc3cc(C)cc(C)c3cc2C#N)CC1,-10.5%
2,COc1ccc2no[n+]([O-])c2c1,14.2%
3,CCN1C(=O)S/C(=C/c2ccc(Oc3ccc([N+](=O)[O-])cn3)c(OC)c2)C1=O,13.4%
4,CCOc1ccc(NC(=S)Nc2ccc(Br)cc2Cl)cc1,16.4%
5,CNc1ccccc1C(C)(C)c1cc(C)[nH]n1,14%
6,CN(C)/C=C/c1onc(-c2ccccc2Cl)c1C#N,-0.69%
7,O=C(NC1CCCCCC1)c1c(O)c2ccccc2[nH]c1=O,9.91%
8,CC(NCCOc1ccccc1F)C(=O)Nc1ccc(S(N)(=O)=O)cc1 (stereo not drawn),14.4%
9,CCOc1ccccc1NC(=O)CSc1nnc2ccc(-c3cccnc3)nn12,-0.807%
10,CC1(C2CC2)NC(=O)N(CC(=O)Nc2ccc(F)cc2F)C1=O (stereo not drawn),6.81%
11,CN1CCN(c2ccccc2NC(=O)COc2ccccc2)CC1,-15.7%
12,O=C(Nc1nc(-c2cc(Cl)sc2Cl)cs1)c1ccccc1,13.5%
13,S=C(NCc1cccc(Cl)c1)NC1CCCCC1,4.14%
14,Cc1cc(C)nc(NC(=O)/C=C/c2ccc3c(c2)OCO3)c1,10.5%
15,Cc1ccc(S(=O)(=O)NNC(=O)c2cccs2)c(C)c1,10.1%
16,Cc1ccc(Nc2nnc(SC(C)C(=O)NC3CC3)s2)cc1 (stereo not drawn),5.27%
17,COC(/C(=N/O)c1ccc(Cl)cc1)c1ccccc1 (stereo not drawn),11.1%
18,O=C1c2ccccc2C(Nc2ccc(S(=O)(=O)N3CCCCC3)cc2)N1Cc1ccco1 (stereo not drawn),0.0423%
19,C=C1SC(=Nc2ccccc2Cl)N(C(=O)c2sc3ccccc3c2Cl)C1(C)C,6.88%
20,O=C(NCCCN1CCCC1=O)c1ccccc1NS(=O)(=O)c1ccc(Br)cc1,14.1%
21,c1ccc(-n2ncc3c(NCc4cccs4)ncnc32)cc1,10.3%
22,Cc1ccccc1CN1CCN(CC2CC3C=CC2C3)CC1 (stereo not drawn),11.9%

row,Structure (SMILES),"hERG current change (%, negative = inhibition) at 1uM"
1,O=C(O)CCn1[nH]c(=O)c2ccccc2c1=O,12.1%
2,O=c1[nH]c(-c2ccncc2)nc2ccccc12,-1.9%
3,Cc1ccc(S(=O)(=O)N2CCC(C(=O)OCC(=O)NCCc3ccccc3)CC2)cc1C,4.85%
4,COc1ccc(/C=C(\NC(=O)c2ccc(C)cc2)C(=O)N2CCCCC2)cc1,-5.56%
5,Cc1ccc(N2CCN(c3ncccc3[N+](=O)[O-])CC2)c(C)c1,17.2%
6,Cc1ccc(-n2ncc3c(=O)n(CC(N)=O)cnc32)cc1C,19.1%
7,Cc1ccc(/C(N)=N/OC(=O)c2cccc(F)c2)cc1,5.54%
8,CCOC(=O)N1CCC(NC(=O)CCc2nc(-c3ccc(C)cc3)no2)CC1,1.99%
9,N#Cc1cc2cc3c(cc2nc1SCC(=O)N1CCCC1)OCCO3,11.5%
10,COc1ccccc1NC(=S)N(CCc1ccc(OC)c(OC)c1)Cc1ccccn1,-9.66%
11,CCC(=O)N1CCN(c2ccc(NC(=S)NC(=O)C(C)C)cc2)CC1,7.03%
12,O=C(CSc1nnc2sc3ccccc3n12)NCc1ccc2c(c1)OCO2,4.29%
13,CCC(C)(C)n1nnnc1C(c1cc2cc(OC)c(OC)cc2[nH]c1=O)N1CCc2ccccc21 (stereo not drawn),1.46%
14,Cc1ccc(N2C(=O)c3ccccc3C2Nc2cccnc2)nc1 (stereo not drawn),3.94%
15,CCCCC1CN2CCc3c([nH]c4ccccc34)C2(C)C1.Cl (stereo not drawn),0.159%
16,O=C(CSc1nc2ccc([N+](=O)[O-])cc2[nH]1)c1ccc2ccccc2c1,5.08%
17,C=CCn1c(O)c(C(CC)=NCCc2ccccc2)c(=O)[nH]c1=O,-19.6%
18,CC(C)CC(NC(=O)C(COCc1ccccc1)NC(=O)OC(C)(C)C)C(=O)NN (stereo not drawn) (Boc-Ser(Bn)-Leu-NHNH2; configuration not given here),18.6%
19,N#CCC(=O)Nc1ccc(C(=O)NCc2cccc(Cl)c2)cc1,9.55%
20,CC(OC(=O)c1ccc(Cl)c(S(=O)(=O)N2CCOCC2)c1)C(=O)Nc1ccc(S(N)(=O)=O)cc1 (stereo not drawn),15.1%
21,COc1cccc(NC(=O)CCC(=O)Nc2ccc3nc(N4CCOCC4)cc(C)c3c2)c1,19.1%
22,O=C(O)/C=C/c1cn(Cc2ccccc2Cl)nc1-c1ccccc1,12.5%

row,Structure (SMILES),"hERG current change (%, negative = inhibition) at 1uM"
1,NNc1nc2c(-c3ccc(F)cc3)nnn2c2ccccc12,11.5%
2,CC1(C)CCCC(C)(C)N1CC(O)COCCOc1ccc(Br)cc1.Cl (stereo not drawn),-12.2%
3,CCNC(=S)N/N=C/c1cc(Br)cc(Br)c1OC,6.52%
4,Cn1c(SCc2nnc(-c3ccccc3)o2)nc2ccccc21,14.8%
5,Cc1cccc(N2CCN(Cc3ccc([N+](=O)[O-])o3)CC2)c1C,11.3%
6,CC(=O)Nc1ccc(-c2cc(-c3ccc(NC(C)=O)cc3)nc(-c3ccc(NC(C)=O)cc3)n2)cc1,11.9%
7,O=C(NCc1ccco1)c1noc2c1CCCC2,5.58%
8,COc1ccc(NC(=O)COC(=O)c2ccc([N+](=O)[O-])o2)cc1Cl,13.9%
9,Cc1ccc(C)c(N2CCN(C(=S)Nc3ccc4nc(N5CCOCC5)cc(C)c4c3)CC2)c1,-5.44%
10,Cc1cc(N(C)C)ccc1N=Nc1ccc2ncccc2c1,12.5%
11,O=C(O)C(Oc1ccc2cc(-c3ccc(Cl)cc3)c(=O)oc2c1)c1ccccc1 (stereo not drawn),14%
12,Cn1ncc(Cl)c1C(=O)Nc1nc2ccc(Cl)cc2s1,4.66%
13,COc1cc(C(=O)OCC(=O)c2cc(C)n(CC3CCCO3)c2C)cc(OC)c1C (stereo not drawn),-1.68%
14,O=c1nc(-c2ccccc2)cc(-c2ccccc2)[nH]1,4.15%
15,COC(=O)C1=C(c2ccc(OC(F)(F)F)cc2)C[C@@H]2CC[C@H]1N2C(=O)NCCCOC(C)C,2.87%
16,CCCCN(C)CCC(=O)Nc1ccc2c(c1)CCC2.Cl,10.2%
17,CCCc1c(O)nc(SCC(=O)NCc2ccco2)[nH]c1=O,14.5%
18,COCCNC(=S)N1C2CCC1CC(NC(=O)NC13CC4CC(CC(C4)C1)C3)C2 (stereo not drawn),4.19%
19,O=C(NNC(=O)c1sccc1-n1cccc1)Nc1ccc(F)cc1,5.42%
20,CC(=O)c1ccc(S(=O)(=O)N(CCCO)Cc2cc3cc4c(cc3[nH]c2=O)OCCO4)cc1,15.8%
21,COCCCn1c(=NC(=O)c2ccccc2)c(C#N)cc2c(=O)n3cccc(C)c3nc21,-49%
